# The campaign covered roughly 350,000 compounds. About 9,900 (2.8%) were called active. The shares of active, inactive and inconclusive entries below differ from those in the screen. Calls come from the whole dose curve; as a rule, active = well fitted activation curve with a large enough effect; inconclusive = small, poorly fitted or top-dose-only effect; inactive = no such curve, though single readings can be large or run the other way. Potencies of inconclusive entries are left out as doubtful fits.
# Experiment: A quantitative high throughput screen for small molecules that induce DNA re-replication in MCF 10a normal breast cells. For activity, positive = re-replication: % of control where 0% means no effect. Note: nearly all actives have a fitted effect of over 50% in size.
# Conditions: MCF 10A DNA re-replication, Hoechst nuclear intensity, 48 h; activity, positive = re-replication: at 46.1 µM (top of the series)
# Potency is the fitted concentration of half-maximal effect; tags give direction and shape of the fitted curve.
SMILES,Potency,"activity, positive = re-replication"
COc1cc(Cl)c(C)cc1NC(=O)c1ccccc1-n1cnnn1,inactive,
CCS(=O)(=O)c1cc([N+](=O)[O-])c(Sc2ccccc2NC(C)=O)s1,"inconclusive [activator, partial curve, poor fit]",
Cc1ccc(SC/C(O)=C(\C#N)c2nc3ccccc3s2)cc1,"inconclusive [activator, partial curve, poor fit]",
CCOC(=O)c1c(-c2cccs2)csc1NC(=O)CN(CC)CC,"inconclusive [activator, single point]",
CCC(O)CC(C(=O)NNc1ccccc1)C(=O)NNc1ccccc1 (stereo unspecified),"inconclusive [activator, single point]",
CC(=O)Oc1c(/C=C(\C#N)C(N)=O)[nH]c2ccccc12,"inconclusive [activator, single point]",
Cc1c(C(=S)Nc2ccccc2)cnn1-c1ccc([N+](=O)[O-])cc1,inactive,
COCCN1CCN(c2c(C)c(C)nc3cc(-c4cccc(OC)c4)nn23)CC1,"inconclusive [activator, partial curve, poor fit]",
O=C(CSc1nc2cc(Cl)ccc2s1)Nc1cccc(S(=O)(=O)N2CCOCC2)c1,"inconclusive [activator, partial curve, poor fit]",
CN(C)c1ccc(N2C(=O)CSC2=S)cc1,"inconclusive [activator, partial curve, poor fit]",
Cn1c(=O)c2c(nc(N3CCCCC3)n2CCSc2nc3ccccc3s2)n(C)c1=O,inactive,
CCn1c(SCC(=O)N2CCN(c3ccccc3F)CC2)nnc1-c1ccoc1C,"inconclusive [activator, partial curve, poor fit]",
CC(C)CC(=O)Nc1cccc(-c2nc3ccccc3o2)c1,"inconclusive [activator, single point]",
O=[N+]([O-])c1ccc(C=Nc2cccc3ccccc23)s1,active: 20.6 µM,
COc1ccc(S(=O)(=O)NC(C)C(=O)Nc2ccccc2C(F)(F)F)cc1 (stereo unspecified),inactive,
Cc1ccc(-c2nn(Cc3ccccc3)cc2C(=O)NCC2CCCO2)cc1 (stereo unspecified),"inconclusive [activator, partial curve]",
Brc1ccccc1-c1nnc2sc(Cc3ccccc3)nn12,inactive,
CCOc1ccccc1/C=N/Nc1ccccc1[N+](=O)[O-],inactive,
COc1ccc(C2C=C(c3ccc(C)c(C)c3)Nc3ncnn32)c(OC)c1OC (stereo unspecified),"inconclusive [activator, partial curve, poor fit]",
CN(C)c1ccc(/C=C(\NC(=O)c2ccccc2)C(=O)NCc2cccnc2)cc1,inactive,
CCCn1c(=O)c(C(=O)Nc2ccccc2C)c(O)c2ccccc21,"inconclusive [activator, single point]",
Oc1ccccc1N=Cc1ccc[nH]1,"inconclusive [activator, partial curve, poor fit]",
CCOC(=O)c1c(NC(=O)C(C)Sc2c[nH]c3ccccc23)sc2c1CCC2 (stereo unspecified),"inconclusive [activator, partial curve, poor fit]",
Cc1csc(NC(=O)CCn2c(=O)oc3ccc(Cl)cc32)n1,inactive,

SMILES,Potency,"activity, positive = re-replication"
Cc1ccc(N2C(=O)c3ccccc3C2Nc2ccccc2F)nc1 (stereo unspecified),inactive,
O=C(Nc1ccc(S(=O)(=O)Nc2cnc3ccccc3n2)cc1)c1ccc(Cl)c([N+](=O)[O-])c1,"inconclusive [activator, single point]",
CC(NC(=O)C1CCCC1)c1ccccc1 (stereo unspecified),inactive,
O=C(C1=C[C@H](c2coc3ccccc3c2=O)C[C@H](OCc2ccc(CO)cc2)O1)N1CCN(Cc2ccccc2)CC1,"inconclusive [activator, single point]",
Cc1cc(C(=O)NNc2c(Cl)cccc2Cl)n(C(C)(C)C)n1,"inconclusive [activator, partial curve, poor fit]",
Nc1nnc(SCC(=O)c2ccccc2)s1,inactive,
Cc1cc2cc(CN(Cc3ccco3)C(=S)NCC3CCCO3)c(=O)[nH]c2cc1C (stereo unspecified),inactive,
CC(C)CNC(=O)c1cccc(NC(=O)COc2ccc([N+](=O)[O-])cc2)c1,inactive,
Nc1c(C(O)(C(F)(F)F)C(F)(F)F)cc(C(O)(C(F)(F)F)C(F)(F)F)c2ccccc12,active: 17.8 µM,
Cc1sc(N)nc1C12CC3CC(CC(C3)C1)C2,"inconclusive [activator, partial curve]",
Cc1cc2c(NC(=O)Nc3ccc(C(F)(F)F)cc3)cccc2nn1,"inconclusive [activator, partial curve, poor fit]",
CC(=O)OCCNc1cc(Sc2nc3ccccc3[nH]2)c2nonc2c1[N+](=O)[O-],,inconclusive: 62% [activator]
FC(F)(F)c1cc(CCN2CCNC[C@@H]2CC2CCCCC2)cc(C(F)(F)F)c1,active: 18.4 µM,
O=C(Nc1ccc(NC(=O)c2cccs2)cc1)c1ccc2c(c1)OCO2,inactive,
COc1ccc(CCNCC(O)COc2ccc(OC)cc2C(C)(C)C)cc1 (stereo unspecified),"inconclusive [activator, single point]",
O=C(NCC(=O)N(Cc1cccs1)C(C(=O)NC1CCCCC1)c1ccncc1)c1ccco1 (stereo unspecified),"inconclusive [activator, single point]",
O=c1cc(-c2ccccc2)[nH]c2nc3ccccc3n12,active: 6.51 µM,
COc1ccc(CNC(=O)CN(C)Cc2ccc(C(C)(C)C)cc2)cc1,"inconclusive [activator, single point]",
COc1cc(CNC2CCCCCCC2)cc(Cl)c1OC,inactive,
Cc1ccc(S(=O)(=O)NCCC(=O)Nc2ccc(C)cc2C(=O)c2ccccc2)cc1,inactive,
O=[N+]([O-])c1ccccc1/C=C/C=N/n1c(-c2ccco2)n[nH]c1=S,"inconclusive [activator, partial curve]",
CCOCCCNC(=O)CCc1ccc(S(=O)(=O)Nc2ccc(C)cc2)cc1,"inconclusive [activator, single point]",
COc1cccc(-c2c(C(=O)N/N=C(\C)c3ccc(Cl)s3)nnn2-c2nonc2N)c1,"inconclusive [activator, single point]",
O=C(Nc1nnc(SCc2ccc(F)cc2)s1)c1cccnc1Cl,inactive,

SMILES,Potency,"activity, positive = re-replication"
COCC(=O)Nc1nc(-c2ccccc2)c(C)s1,"inconclusive [activator, partial curve, poor fit]",
Cc1ccc(NC(=O)CNCc2ccccc2)c(Br)c1,"inconclusive [activator, partial curve, poor fit]",
O=c1c(-c2nc3ccccc3s2)cccn1Cc1ccc(Cl)c(Cl)c1,"inconclusive [activator, full curve, poor fit]",
Cc1ccccc1-n1nc2c(c1NC(=O)c1ccc(Br)o1)CSC2,inactive,
CNC(=O)C(=O)N/N=C/c1ccc(Br)cc1,inactive,
CC(C)c1nnc(NC(=O)c2nc(S(=O)(=O)Cc3ccccc3F)ncc2Cl)s1,active: 0.731 µM,
COc1ccccc1C(OC(=O)c1cccs1)C(=O)NCc1ccco1 (stereo unspecified),"inconclusive [activator, single point]",
COc1cc(C(=O)OCC(=O)NC(=O)NC2CCCCC2)cc(Cl)c1OC,inactive,
Nc1nc(SCC(=O)c2cc3ccccc3o2)n[nH]1,inactive,
CCOC(=O)C1CCCN(C(=O)c2ccc3c(=O)n(Cc4ccccc4OC)c(=S)[nH]c3c2)C1 (stereo unspecified),"inconclusive [activator, single point]",
COc1ccccc1Nc1c2c(nc3ccccc13)CCC2,active: 11.6 µM,
COc1ccc(C)cc1NC(=O)c1nn(-c2ccccc2)cc1OC,active: 23.1 µM,
CC1=NN(c2nc3ccccc3[nH]2)C(=O)C1Cc1ccccc1 (stereo unspecified),"inconclusive [activator, partial curve, poor fit]",
Cc1nc2sc(C(=O)Nc3ccccc3)c(N)c2c(C)c1[N+](=O)[O-],"inconclusive [activator, partial curve, poor fit]",
CCOc1ccccc1CNC(c1ccccc1)c1ccccc1,"inconclusive [activator, single point]",
COc1ccc(NS(=O)(=O)c2cc(NC(=O)CNC(=O)c3ccc(C)s3)ccc2Cl)cc1,"inconclusive [activator, partial curve, poor fit]",
O=C(CSc1n[nH]c(-c2ccccn2)n1)Nc1cccc(Cl)c1,inactive,
N#Cc1nc(Cc2cccc3ccccc23)oc1NCc1ccco1,"inconclusive [activator, single point]",
O=C(NCC(c1ccccc1)N1CCCC1)C1CCN(C(=O)Nc2ccccc2)CC1 (stereo unspecified),"inconclusive [activator, partial curve, poor fit]",
Cc1ccsc1/C=N/NC(=O)c1nnn(-c2nonc2N)c1CSc1ccccc1,"inconclusive [activator, partial curve]",
CC1=C[C@H]2Cc3cc(C)cc(C)c3S(=O)(=O)[C@@H]2C=C1,"inconclusive [activator, partial curve, poor fit]",
CC1CCN(CCOCCOc2ccc(Br)cc2Cl)CC1,"inconclusive [activator, partial curve, poor fit]",
COc1ccc(CN(C(=O)Cc2c[nH]c3ccccc23)C(C(=O)NC2CCCCC2)c2ccc(C)o2)cc1 (stereo unspecified),"inconclusive [activator, partial curve, poor fit]",
